According to the supplement of paper PMC4996465:
Viability of KB3-1 and Nalm-6 cells after 48 h of drug alone (CellTiter-Glo), 11 doses over about 4.5 log units. % of DMSO wells, lower = more cell loss; AC50 from the fitted curve, lower = more potent. No active / inactive call. Nalm-6 was screened in two runs. AC50 is listed only for well-fitted inhibitory curves. KB3-1 is a HeLa-derived carcinoma line, Nalm-6 a B-cell precursor leukaemia line.

Assays:
KB3-1 = assay: viability (% of DMSO control); higher = more viable cells
Description: (§1)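 Eleven-dose screen of the NCATS MIPE 3 library on cells without co-treatment; CellTiter-Glo after 48 h, as % of DMSO wells.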

Nalm-6 = assay: as above
Description: as §1

| SMILES | viability (KB3-1; 0.00078 µM) | viability (KB3-1; 0.00234 µM) | viability (KB3-1; 0.00702 µM) | viability (KB3-1; 0.0211 µM) | viability (KB3-1; 0.0632 µM) | viability (KB3-1; 0.19 µM) | viability (KB3-1; 0.569 µM) | viability (KB3-1; 1.71 µM) | viability (KB3-1; 5.12 µM) | viability (KB3-1; 15.4 µM) | viability (KB3-1; 46.1 µM) | viability (Nalm-6; run: 1, 0.00078 µM) | viability (Nalm-6; run: 1, 0.00234 µM) | viability (Nalm-6; run: 1, 0.00702 µM) | viability (Nalm-6; run: 1, 0.0211 µM) | viability (Nalm-6; run: 1, 0.0632 µM) | viability (Nalm-6; run: 1, 0.19 µM) | viability (Nalm-6; run: 1, 0.569 µM) | viability (Nalm-6; run: 1, 1.71 µM) | viability (Nalm-6; run: 1, 5.12 µM) | viability (Nalm-6; run: 1, 15.4 µM) | viability (Nalm-6; run: 1, 46.1 µM) | viability (Nalm-6; run: 2, 0.00078 µM) | viability (Nalm-6; run: 2, 0.00234 µM) | viability (Nalm-6; run: 2, 0.00702 µM) | viability (Nalm-6; run: 2, 0.0211 µM) | viability (Nalm-6; run: 2, 0.0632 µM) | viability (Nalm-6; run: 2, 0.19 µM) | viability (Nalm-6; run: 2, 0.569 µM) | viability (Nalm-6; run: 2, 1.71 µM) | viability (Nalm-6; run: 2, 5.12 µM) | viability (Nalm-6; run: 2, 15.4 µM) | viability (Nalm-6; run: 2, 46.1 µM) |
| --- | --- | --- | --- | --- | --- | --- | --- | --- | --- | --- | --- | --- | --- | --- | --- | --- | --- | --- | --- | --- | --- | --- | --- | --- | --- | --- | --- | --- | --- | --- | --- | --- | --- |
| C[N]1C2=C(SC(=C2)[S+](C)[O-])C\3=C1C(=O)N(CC4=CC(=CC=C4)N)\N=C3 (centres undefined) | 101% | 101% | 94.4% | 100% | 101% | 105% | 105% | 103% | 98.6% | 98% | 31.8% | 58.1% | 95.9% | 104% | 112% | 120% | 116% | 127% | 113% | 127% | 124% | 128% | 102% | 100% | 99.1% | 112% | 103% | 101% | 113% | 103% | 115% | 109% | 118% |
| Cn1cc(-c2ccc3nnc(C(F)(F)c4ccc5ncccc5c4)n3n2)cn1 | 106% | 105% | 103% | 95.5% | 102% | 93.5% | 100% | 103% | 96% | 88.2% | 86.3% | 107% | 112% | 106% | 107% | 113% | 118% | 114% | 87.5% | 104% | 103% | 78% | 111% | 115% | 85.8% | 105% | 112% | 116% | 110% | 108% | 110% | 102% | 84.9% |
| CN(C(=O)c1ccc(F)cc1C(F)(F)F)C1CCN(c2nnc(-c3ccnn3C)c3ccccc23)CC1 | 98.1% | 94.6% | 96.6% | 92.8% | 93.6% | 96.7% | 95.2% | 87.9% | 87.2% | 87.9% | 69% | 96.1% | 95.6% | 106% | 109% | 108% | 116% | 105% | 112% | 101% | 96.6% | 31.1% | 106% | 108% | 110% | 106% | 105% | 102% | 108% | 101% | 105% | 106% | 70.6% |
| ClC1=C[NH]N=C1C\2NC(=N\C3=C2C(=O)CCC3)/NC4=NC5=CC=CC=C5O4 (centres undefined) | 97.3% | 103% | 103% | 100% | 102% | 103% | 106% | 105% | 109% | 109% | 91.3% | 68.4% | 92.2% | 91.4% | 103% | 105% | 120% | 115% | 109% | 111% | 84.8% | 69.1% | 94.6% | 95.5% | 98% | 106% | 108% | 104% | 110% | 116% | 98.3% | 106% | 70.1% |
| O=C(N[C@@H](c1ccccc1)[C@@H]1CCCCN1)c1cccc(C(F)(F)F)c1Cl | 104% | 99.8% | 102% | 102% | 107% | 105% | 105% | 102% | 101% | 95.7% | 9.94% | 107% | 100% | 110% | 109% | 110% | 110% | 110% | 101% | 103% | 102% | 2.99% | 100% | 99.7% | 105% | 105% | 103% | 107% | 105% | 107% | 104% | 98.7% | 1.69% |
| NC(=O)c1ccc(-c2nc(-c3ccc4c(c3)OCO4)c(-c3ccccn3)[nH]2)cc1 | 101% | 105% | 100% | 97.8% | 96.5% | 99.5% | 106% | 105% | 111% | 113% | 99.7% | 99.3% | 102% | 114% | 107% | 107% | 117% | 111% | 117% | 119% | 121% | 77.3% | 104% | 102% | 110% | 110% | 114% | 110% | 101% | 116% | 117% | 112% | 88.6% |
| Nc1cccc(S(=O)(=O)N2CCCN(S(=O)(=O)c3ccc4c(c3)OCCO4)CC2)c1 | 103% | 98% | 106% | 100% | 102% | 99.9% | 104% | 105% | 101% | 95.8% | 91.5% | 97.9% | 108% | 111% | 115% | 129% | 121% | 118% | 115% | 130% | 108% | 101% | 98.8% | 107% | 109% | 105% | 112% | 110% | 109% | 105% | 108% | 101% | 93.5% |
| O=C(OCC#CCSc1nnc(-c2ccc3ccccc3c2)o1)c1cc2ccccc2s1 | 108% | 105% | 107% | 111% | 104% | 108% | 111% | 107% | 109% | 103% | 89.1% | 86.8% | 97.9% | 96.8% | 110% | 100% | 116% | 105% | 106% | 111% | 78.8% | 75.9% | 87.7% | 90.8% | 99.5% | 99.8% | 95.7% | 97.8% | 102% | 104% | 91.9% | 83.1% | 71.4% |
